In paper PMC4336329 (PLoS ONE, 2015):
In all, about 310,000 compounds went through this assay and about 2,200 (0.71%) showed an effect of 50% or more. The effect is printed as a negative number. The list shows a part of the results.

Target: human ether-à-go-go-related gene (hERG) potassium channel (human, UniProt Q12809)
Assay: primary screen, population patch clamp on CHO cells stably expressing hERG

Chain of human ether-à-go-go-related gene (hERG) potassium channel (Q12809 whole entry, looked up): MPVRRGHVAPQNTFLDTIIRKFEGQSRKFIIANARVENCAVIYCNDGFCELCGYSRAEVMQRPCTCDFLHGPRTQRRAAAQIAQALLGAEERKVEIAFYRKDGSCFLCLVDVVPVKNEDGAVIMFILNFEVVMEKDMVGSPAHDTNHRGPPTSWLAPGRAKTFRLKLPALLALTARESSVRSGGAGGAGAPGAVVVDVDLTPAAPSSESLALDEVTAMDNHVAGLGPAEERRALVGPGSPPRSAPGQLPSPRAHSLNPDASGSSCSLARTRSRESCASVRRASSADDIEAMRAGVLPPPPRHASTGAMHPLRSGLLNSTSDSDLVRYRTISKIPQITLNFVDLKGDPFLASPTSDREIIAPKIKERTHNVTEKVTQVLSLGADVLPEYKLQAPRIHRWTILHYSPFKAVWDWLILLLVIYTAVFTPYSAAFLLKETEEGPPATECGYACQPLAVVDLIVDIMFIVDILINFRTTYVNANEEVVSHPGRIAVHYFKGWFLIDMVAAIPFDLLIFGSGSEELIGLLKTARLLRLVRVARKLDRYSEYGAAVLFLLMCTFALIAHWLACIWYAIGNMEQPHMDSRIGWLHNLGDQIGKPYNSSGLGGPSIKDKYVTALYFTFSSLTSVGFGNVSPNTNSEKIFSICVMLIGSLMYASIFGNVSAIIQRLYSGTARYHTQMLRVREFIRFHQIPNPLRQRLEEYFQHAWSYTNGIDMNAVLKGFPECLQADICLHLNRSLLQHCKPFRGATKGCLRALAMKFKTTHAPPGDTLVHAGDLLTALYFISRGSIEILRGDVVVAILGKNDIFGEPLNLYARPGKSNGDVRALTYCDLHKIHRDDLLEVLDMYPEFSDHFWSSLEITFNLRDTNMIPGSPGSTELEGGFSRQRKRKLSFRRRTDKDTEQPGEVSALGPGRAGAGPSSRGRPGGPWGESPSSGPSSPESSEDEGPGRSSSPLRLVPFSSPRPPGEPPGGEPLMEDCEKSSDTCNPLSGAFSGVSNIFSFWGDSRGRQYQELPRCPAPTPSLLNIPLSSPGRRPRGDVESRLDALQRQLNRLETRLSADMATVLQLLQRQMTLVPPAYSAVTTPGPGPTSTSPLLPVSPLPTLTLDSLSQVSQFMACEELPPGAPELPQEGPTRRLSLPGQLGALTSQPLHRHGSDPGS

| SMILES | hERG current change (%, negative = inhibition) at 1uM [%] |
| --- | --- |
| Cc1ccc(CC2C(=O)N(C)C(=O)N(C)C2=O)s1 | -7.49 |
| COc1ccc(NC(=O)c2ccc(-n3cncn3)c([N+](=O)[O-])c2)cc1OC | 10.9 |
| CCC(C)[C@H](NC(=O)N1CCN(c2cccc(C(F)(F)F)c2)CC1)C(=O)OC (some centres unmarked) | -1.88 |
| CC(=O)Nc1nc(CC(=O)c2ccccc2)cs1 | 13 |
| O=C(NCCCCO)c1ccc2c3c(cccc13)CC2 | 7.93 |
| S=C(Nc1ccccc1Cl)N(Cc1ccccc1)Cc1cccnc1 | 12 |
| O=C(c1cc2ncc(Br)cn2n1)N1CCCCC1 | 5.05 |
| C=CCn1c(SCC(=O)N(CCOC)c2c(N)n(CC(C)C)c(=O)[nH]c2=O)nc2ccccc21 | 12.5 |
| Cc1ccc(Sc2ccc(NC(=O)c3ccc(S(C)(=O)=O)cc3Cl)cc2)cc1 | 5.66 |
| COc1cccc(CN2CCCN(S(=O)(=O)c3ccc(Br)cc3)CC2)c1 | -22.3 |
| Cc1ccc(NC(=O)c2cc([N+](=O)[O-])ccc2Cl)c(O)c1 | 7.08 |
| Cc1ccc2c(c1)COc1c3ccc(C(=O)N[C@@H](CO)C(C)C)cc3nn1-2 | 3.97 |
| O=C(Nc1nc2ccccc2s1)c1cc(-c2ccccc2)nn1-c1ccccc1 | 11.4 |
| O=C(NCc1ccccc1F)C(=O)NCC1CCCN1S(=O)(=O)c1cccs1 (centres unmarked) | 10.6 |
| COC(=O)C1=C(c2ccc(C(C)=O)cc2)C[C@@H]2CC[C@H]1N2C(=O)N1CCCCC1 | 4.19 |
| Cn1c(=O)c2[nH]c(SCC(=O)c3ccc(F)cc3)nc2n(C)c1=O | 14.6 |
| Cc1ccc(NC(=O)c2c(C)nn(-c3ccccc3)c2Cl)c(C)c1 | 12.6 |
| O=Cc1ccc2oc3nc4n(c(=O)c3c(=O)c2c1)CCCS4 | 4.35 |
| Cc1ccc2ncnc(Oc3ncccc3NC(=O)C(C)(C)C)c2c1 | 16.1 |
| Cc1ccc(S(=O)(=O)N2CCN(C(=O)CNC(=O)c3ccc(Br)o3)CC2)cc1 | -2.61 |
| COc1ccccc1C(=O)NC(CCSC)C(=O)NC1CCCCCC1 (centres unmarked) | 13.4 |
| O=C(Nc1ccncc1)c1cccc(S(=O)(=O)N2CCc3ccccc32)c1 | 5.25 |

| SMILES | hERG current change (%, negative = inhibition) at 1uM [%] |
| --- | --- |
| CCOC(=O)c1c(C)c(C(=O)NCc2ccc3c(c2)OCO3)c(C)n1CC | 11.4 |
| CCOC(=O)CNC(=O)c1c(C)nn(-c2ccccc2)c1Cl | 2.03 |
| O=C(NOCc1ccccc1)c1ccc([N+](=O)[O-])cc1 | 11 |
| CCCN=C1CC(C)(C)CC(=O)/C1=C(/O)CCC | 16.7 |
| CCn1cc(CCC(=O)NCc2ccccc2OC)c2ccccc21 | 11.2 |
| O=C(COC(=O)c1nc(Cl)ccc1Cl)NCCc1ccccc1 | 9.9 |
| CCOc1ccc(CCNC(=O)C2CCN(c3nnc(-n4cccc4)s3)CC2)cc1 | 10 |
| N#CC1(NC(=O)COC(=O)Cn2[nH]c(=O)c3ccccc3c2=O)CCCCC1 | 6.38 |
| N#Cc1ccccc1Cn1cc(C(=O)c2ccco2)c2ccccc21 | 7.81 |
| COc1ccc(OC)c(-n2c(O)cnc2Nc2nc(C)cc(C)n2)c1 | -0.817 |
| COc1ccc(NC(=O)C2(N(C(=O)Cn3nnnc3N)c3ccc(OC)cc3)CCCCC2)cc1 | 17.1 |
| CCCc1ccc(OCCNC(C)=O)cc1 | 8.29 |
| O=C(Nc1ccc(O)cc1)c1cc2ccccc2c(=O)s1 | 8.99 |
| CCc1ccc(/C=C2/Sc3ccccc3N(CC(=O)NCC3CCCO3)C2=O)cc1 (centres unmarked) | 3.26 |
| O=C(CN1C(=O)C2CCCCC2C1=O)Nc1ccccc1C(=O)O (centres unmarked) | 9.86 |
| CCN(CC)S(=O)(=O)c1ccc(C(=O)OCn2c(SC)nnc(C)c2=O)cc1 | -2.56 |
| CC(C(=O)c1c[nH]c(C(N)=O)c1)c1ncc(C(F)(F)F)cc1Cl (centres unmarked) | 12.6 |
| Cc1nnc2ccc(-c3ccc(NC(=O)c4ccc(Cl)nc4)cc3)nn12 | -6.7 |
| Cn1c(=O)c2c(nc(CN3CCOCC3)n2CCCc2ccccc2)n(C)c1=O | 16.9 |
| CCSc1nn2c(=O)c3ccccc3nc2s1 | 8.17 |
| C=CCNC(=O)c1onc(CSc2ccc(OC)cc2)c1C(=O)O | 14.4 |
| CCOC(=O)C1(Cc2cccc(OC)c2)CCCN(S(=O)(=O)CC)C1 (centres unmarked) | 23.6 |
